PMC5760104
No constants are given. Whether binding was seen depends on the method and setting. In cells and extracts the contact can be indirect. Some entries that bind do so weakly or less than the wild type. For some of these results: Tags and fused reporters may be left off the sequences shown.

Key:
[1] = molecular target: FLAG-tagged BPV1 E6 (Bos taurus papillomavirus 1) (UniProt P06931); experiment: co-IP; HA-E6AP_Ub- or HA-E6AP_Ub- LDDLL co-transfected with the E6 protein and HA-GFP in 293T cells; lysed 18 hours later in 0.5X IGEPAL lysis buffer
[2] = molecular target: T1, FLAG-tagged HPV11 E6 (Human papillomavirus type 11) (UniProt P04019); experiment: co-IP; FLAG-E6 co-expressed in 293T cells with an excess of both HA-E6AP_Ub- and HA-MAML1 (and HA-GFP); lysed 18 hrs later in 0.5X IGEPAL lysis buffer; anti-FLAG M2 beads 1 hr; blots with anti-HA and anti-FLAG
T1 sequence: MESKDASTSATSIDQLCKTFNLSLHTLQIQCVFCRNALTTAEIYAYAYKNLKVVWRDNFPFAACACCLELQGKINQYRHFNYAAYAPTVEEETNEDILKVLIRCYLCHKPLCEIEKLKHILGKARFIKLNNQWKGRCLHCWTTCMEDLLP

[3] = molecular target: FLAG-tagged HPV18 E6 (Human papillomavirus type 18) (UniProt P06463); experiment: as above
[4] = molecular target: FLAG-tagged PsPV1 E6 (Phocoena spinipinnis papillomavirus 1) (UniProt Q8UZ19); experiment: as above
[5] = molecular target: FLAG-tagged UmPV1 E6 (Ursus maritimus papillomavirus 1) (UniProt B2KKW7); experiment: as above
[6] = molecular target: FLAG-tagged BPV1 E6 (Bos taurus papillomavirus 1) (UniProt P06931); experiment: as above
[7] = molecular target: T2, FLAG-tagged HPV1 E6 (Human papillomavirus type 1) (UniProt P06929); experiment: as above
T2 sequence: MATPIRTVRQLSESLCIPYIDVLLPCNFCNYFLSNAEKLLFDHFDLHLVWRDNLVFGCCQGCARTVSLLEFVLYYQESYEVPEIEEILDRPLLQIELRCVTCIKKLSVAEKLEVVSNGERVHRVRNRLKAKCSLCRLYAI

[8] = molecular target: FLAG-tagged HPV16 E6 (Human papillomavirus type 16) (UniProt P03126); experiment: as above
[9] = molecular target: FLAG-tagged HPV8 E6 (Human papillomavirus type 8) (UniProt P06428); experiment: as above
[10] = molecular target: FLAG-tagged MnPV1 E6 (Mastomys natalensis papillomavirus 1) (UniProt P30735); experiment: as above
[11] = molecular target: FLAG-tagged BPV1 E6 (Bos taurus papillomavirus 1) (UniProt P06931); experiment: co-IP; 293T cells co-transfected with myc-MAML3, HA-MAML1, HA-MAML2, HA-E6AP_Ub-, HA-GFP and FLAG-E6; FLAG antibody beads
[12] = molecular target: FLAG-tagged BpPV1 E6 (Bettongia penicillata papillomavirus 1) (UniProt D6N1B8); experiment: as above
[13] = molecular target: FLAG-tagged RaPV1 E6 (Rousettus aegyptiacus papillomavirus 1) (UniProt Q0QII1); experiment: as above

Question: Which binding [1] does the source give for “HA-tagged E6AP containing a C843A mutation that eliminates ubiquitin ligase activity (E6AP_Ub-) (from UniProt Q05086-1 1-875) (enzyme)” here?
Answer: no binding

Question: And the binding [2]?
Answer: binds

Question: What about the binding [3] of the same substance?
Answer: binds

Question: What about the binding [4] of the same substance?
Answer: binds

Question: What about the binding [5] of the same substance?
Answer: binds

Question: Which results are given for “HA-tagged MAML1 (from UniProt Q92585 1-1016)”?
Answer: binding [6]: binds; binding [7]: binds weakly; binding [8]: binds weakly; binding [9]: binds weakly; binding [10]: binds weakly

Question: Which binding [11] does the source give for myc-MAML3 (from UniProt Q96JK9 1-1138) here?
Answer: binds

Question: And the binding [12]?
Answer: no binding

Question: What about the binding [13] of the same substance?
Answer: no binding
